In publication PMC9911399, “Two distinct binding modes provide the RNA-binding protein RbFox with extraordinary sequence specificity”:
Positions count from the first letter of the chain named. Some of the results follow.

T1: RBFOX1 RRM (Homo sapiens, UniProt Q9NWB1 109-208)
T1 sequence: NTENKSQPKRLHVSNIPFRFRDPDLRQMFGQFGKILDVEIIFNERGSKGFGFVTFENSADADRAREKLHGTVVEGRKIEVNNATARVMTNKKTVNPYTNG

B1: CACACAG (DNA:RNA)
RNA: GGGAGACCGGAAUUCAGAUUGUCCCACACAGUUAAAUCCCGUCGUAGCCACCA
DNA 1: CAATCTGAATTCCGGTCTCCC
DNA 2: TGGTGGCTACGACGGGATT
B2: AGUGGAG (DNA:RNA)
RNA: B1 RNA with C25A, A26G, C27U, A28G, C29G
DNA 1: CAATCTGAATTCCGGTCTCCC
DNA 2: TGGTGGCTACGACGGGATT
B3: UAUGUGG (DNA:RNA)
RNA: B1 RNA with C25U, C27U, A28G, C29U, A30G
DNA 1: CAATCTGAATTCCGGTCTCCC
DNA 2: TGGTGGCTACGACGGGATT
B4: AGCGGGA (DNA:RNA)
RNA: B1 RNA with C25A, A26G, A28G, C29G, A30G, G31A
DNA 1: CAATCTGAATTCCGGTCTCCC
DNA 2: TGGTGGCTACGACGGGATT
B5: CUUGGGA (DNA:RNA)
RNA: B1 RNA with A26U, C27U, A28G, C29G, A30G, G31A
DNA 1: CAATCTGAATTCCGGTCTCCC
DNA 2: TGGTGGCTACGACGGGATT
B6: UUGGAGG (DNA:RNA)
RNA: B1 RNA with C25U, A26U, C27G, A28G, C29A, A30G
DNA 1: CAATCTGAATTCCGGTCTCCC
DNA 2: TGGTGGCTACGACGGGATT
B7: GUAAUCU (DNA:RNA)
RNA: B1 RNA with C25G, A26U, C27A, C29U, A30C, G31U
DNA 1: CAATCTGAATTCCGGTCTCCC
DNA 2: TGGTGGCTACGACGGGATT
B8: UGUACGU (DNA:RNA)
RNA: B1 RNA with C25U, A26G, C27U, A30G, G31U
DNA 1: CAATCTGAATTCCGGTCTCCC
DNA 2: TGGTGGCTACGACGGGATT
B9: AUUGGCG (DNA:RNA)
RNA: B1 RNA with C25A, A26U, C27U, A28G, C29G, A30C
DNA 1: CAATCTGAATTCCGGTCTCCC
DNA 2: TGGTGGCTACGACGGGATT
B10: GUAUUGA (DNA:RNA)
RNA: GGGAGACCGGAAUUCAGAUUGUCCGUAUUGAUUAAAUCCCGUCGUAGCCACCA
DNA 1: CAATCTGAATTCCGGTCTCCC
DNA 2: TGGTGGCTACGACGGGATT
B11: GUCCCCA (DNA:RNA)
RNA: B10 RNA with A27C, U28C, U29C, G30C
DNA 1: CAATCTGAATTCCGGTCTCCC
DNA 2: TGGTGGCTACGACGGGATT
B12: GCACAAA (DNA:RNA)
RNA: B10 RNA with U26C, U28C, U29A, G30A
DNA 1: CAATCTGAATTCCGGTCTCCC
DNA 2: TGGTGGCTACGACGGGATT
B13: UACAGGC (DNA:RNA)
RNA: B1 RNA with C25U, C29G, A30G, G31C
DNA 1: CAATCTGAATTCCGGTCTCCC
DNA 2: TGGTGGCTACGACGGGATT
B14: ACGCAUA (DNA:RNA)
RNA: B10 RNA with G25A, U26C, A27G, U28C, U29A, G30U
DNA 1: CAATCTGAATTCCGGTCTCCC
DNA 2: TGGTGGCTACGACGGGATT
B15: UAGGAUG (DNA:RNA)
RNA: B1 RNA with C25U, C27G, A28G, C29A, A30U
DNA 1: CAATCTGAATTCCGGTCTCCC
DNA 2: TGGTGGCTACGACGGGATT
B16: GACCCCG (DNA:RNA)
RNA: B1 RNA with C25G, A28C, A30C
DNA 1: CAATCTGAATTCCGGTCTCCC
DNA 2: TGGTGGCTACGACGGGATT
B17: ACCUCAA (DNA:RNA)
RNA: B1 RNA with C25A, A26C, A28U, G31A
DNA 1: CAATCTGAATTCCGGTCTCCC
DNA 2: TGGTGGCTACGACGGGATT
B18: CGGACGG (DNA:RNA)
RNA: B1 RNA with A26G, C27G, A30G
DNA 1: CAATCTGAATTCCGGTCTCCC
DNA 2: TGGTGGCTACGACGGGATT
B19: GUAUAAA (DNA:RNA)
RNA: B10 RNA with U29A, G30A
DNA 1: CAATCTGAATTCCGGTCTCCC
DNA 2: TGGTGGCTACGACGGGATT
B20: ACUUGCC (DNA:RNA)
RNA: B10 RNA with G25A, U26C, A27U, U29G, G30C, A31C
DNA 1: CAATCTGAATTCCGGTCTCCC
DNA 2: TGGTGGCTACGACGGGATT
B21: CUGUUUU (DNA:RNA)
RNA: B10 RNA with G25C, A27G, G30U, A31U
DNA 1: CAATCTGAATTCCGGTCTCCC
DNA 2: TGGTGGCTACGACGGGATT
B22: CGUCAUG (DNA:RNA)
RNA: B1 RNA with A26G, C27U, A28C, C29A, A30U
DNA 1: CAATCTGAATTCCGGTCTCCC
DNA 2: TGGTGGCTACGACGGGATT
B23: CAACCCU (DNA:RNA)
RNA: B1 RNA with C27A, A28C, A30C, G31U
DNA 1: CAATCTGAATTCCGGTCTCCC
DNA 2: TGGTGGCTACGACGGGATT
B24: ACCUAGC (DNA:RNA)
RNA: B10 RNA with G25A, U26C, A27C, U29A, A31C
DNA 1: CAATCTGAATTCCGGTCTCCC
DNA 2: TGGTGGCTACGACGGGATT
B25: CUCUACA (DNA:RNA)
RNA: B10 RNA with G25C, A27C, U29A, G30C
DNA 1: CAATCTGAATTCCGGTCTCCC
DNA 2: TGGTGGCTACGACGGGATT
B26: GCAAGUG (DNA:RNA)
RNA: B1 RNA with C25G, A26C, C27A, C29G, A30U
DNA 1: CAATCTGAATTCCGGTCTCCC
DNA 2: TGGTGGCTACGACGGGATT
B27: GUGGUUU (DNA:RNA)
RNA: B10 RNA with A27G, U28G, G30U, A31U
DNA 1: CAATCTGAATTCCGGTCTCCC
DNA 2: TGGTGGCTACGACGGGATT
B28: UGCUCAA (DNA:RNA)
RNA: B1 RNA with C25U, A26G, A28U, G31A
DNA 1: CAATCTGAATTCCGGTCTCCC
DNA 2: TGGTGGCTACGACGGGATT
B29: UGCCAAG (DNA:RNA)
RNA: B1 RNA with C25U, A26G, A28C, C29A
DNA 1: CAATCTGAATTCCGGTCTCCC
DNA 2: TGGTGGCTACGACGGGATT
B30: AUACGCG (DNA:RNA)
RNA: B10 RNA with G25A, U28C, U29G, G30C, A31G
DNA 1: CAATCTGAATTCCGGTCTCCC
DNA 2: TGGTGGCTACGACGGGATT
B31: AAUUCGC (DNA:RNA)
RNA: B1 RNA with C25A, C27U, A28U, A30G, G31C
DNA 1: CAATCTGAATTCCGGTCTCCC
DNA 2: TGGTGGCTACGACGGGATT

target: T1, RBFOX1 RRM; assay: EMSA; HiTS-Eq, 1 nM pool, 10 min; buffer printed only for the single-RNA assays: 10 mM Tris pH 7.5, 150 mM NaCl, 3.4 mM EDTA, 0.001% NP-40, 30 C; conditions: tags: His6 N-terminal (pET28a); label: 5' 32P
In short: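 Relative association constants, normalised to the cognate motif, were derived by comparing read counts of each RNA species with those of the control reaction. The RNA sequenced was the free fraction, separated by 8% native PAGE after a 10 min equilibration in 50 µL of 1 nM 5′-radiolabelled RNA (7 randomized nucleotides) with increasing concentrations of purified wild-type or mutant RbFox RRM.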

Binder	binding signal
B1	0.00174 KA relative to UGCAUGU
B2	0.00563 KA relative to UGCAUGU
B3	0.0112 KA relative to UGCAUGU
B4	0.0205 KA relative to UGCAUGU
B5	0.00252 KA relative to UGCAUGU
B6	0.0111 KA relative to UGCAUGU
B7	0.00558 KA relative to UGCAUGU
B8	0.00969 KA relative to UGCAUGU
B9	0.0169 KA relative to UGCAUGU
B10	0.0118 KA relative to UGCAUGU
B11	0.0137 KA relative to UGCAUGU
B12	0.00369 KA relative to UGCAUGU
B13	0.00911 KA relative to UGCAUGU
B14	0.00394 KA relative to UGCAUGU
B15	0.0113 KA relative to UGCAUGU
B16	0.0083 KA relative to UGCAUGU

Binder	binding signal
B17	0.00184 KA relative to UGCAUGU
B18	0.0177 KA relative to UGCAUGU
B19	0.00317 KA relative to UGCAUGU
B20	0.0101 KA relative to UGCAUGU
B21	0.017 KA relative to UGCAUGU
B22	0.0131 KA relative to UGCAUGU
B23	0.00171 KA relative to UGCAUGU
B24	0.00366 KA relative to UGCAUGU
B25	0.00251 KA relative to UGCAUGU
B26	0.0188 KA relative to UGCAUGU
B27	0.019 KA relative to UGCAUGU
B28	0.0119 KA relative to UGCAUGU
B29	0.0154 KA relative to UGCAUGU
B30	0.00538 KA relative to UGCAUGU
B31	0.00863 KA relative to UGCAUGU
